Data published in PubChem BioAssay (NCI).
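Tested at 5 concentrations; 48 h exposure; 96-well plates; endpoints linearly interpolated, else capped at highest concentration. Abbreviation: GI50, concentration required for 50% inhibition of growth. TGI denotes the concentration required for complete inhibition of growth.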

Test system: NCI-H322M lung
Test: NCI-60 cell line screen, 48 h

Compound | GI50 [µM] | TGI [µM]
Cc1nc(N)sc1-c1csc(Nc2ccc(C(F)(F)F)cc2)n1 | 11.1 | 23.1
CN(c1ccc(Br)cc1)S(=O)(=O)c1ccc(-c2cnc(C3CC3)o2)cc1 | 3.63 | > 100
C#C[C@]1(O)CC[C@H]2[C@@H]3CC=C4c5sc(Nc6cc(OC)ccc6OC)nc5CC[C@]4(C)[C@H]3CC[C@@]21C | 3.84 | > 100
COc1ccc(Cn2cc3c(c2-c2cc(OC)c(OC)c(OC)c2)CCc2c(CN4CCOCC4)noc2-3)cc1 | > 100 | > 100
